# Laboratory results from article PMC4336329 (PLoS ONE, 2015).
# Hit rate of the full screen: of about 310,000 compounds, about 2,200 (0.71%) showed an effect of 50% or more. Effects have a minus sign here. This is one part of the list.
# Target: human ether-à-go-go-related gene (hERG) potassium channel (human, UniProt Q12809)
# Assay: primary screen, population patch clamp on CHO cells stably expressing hERG
# Chain of human ether-à-go-go-related gene (hERG) potassium channel (Q12809 whole entry, looked up): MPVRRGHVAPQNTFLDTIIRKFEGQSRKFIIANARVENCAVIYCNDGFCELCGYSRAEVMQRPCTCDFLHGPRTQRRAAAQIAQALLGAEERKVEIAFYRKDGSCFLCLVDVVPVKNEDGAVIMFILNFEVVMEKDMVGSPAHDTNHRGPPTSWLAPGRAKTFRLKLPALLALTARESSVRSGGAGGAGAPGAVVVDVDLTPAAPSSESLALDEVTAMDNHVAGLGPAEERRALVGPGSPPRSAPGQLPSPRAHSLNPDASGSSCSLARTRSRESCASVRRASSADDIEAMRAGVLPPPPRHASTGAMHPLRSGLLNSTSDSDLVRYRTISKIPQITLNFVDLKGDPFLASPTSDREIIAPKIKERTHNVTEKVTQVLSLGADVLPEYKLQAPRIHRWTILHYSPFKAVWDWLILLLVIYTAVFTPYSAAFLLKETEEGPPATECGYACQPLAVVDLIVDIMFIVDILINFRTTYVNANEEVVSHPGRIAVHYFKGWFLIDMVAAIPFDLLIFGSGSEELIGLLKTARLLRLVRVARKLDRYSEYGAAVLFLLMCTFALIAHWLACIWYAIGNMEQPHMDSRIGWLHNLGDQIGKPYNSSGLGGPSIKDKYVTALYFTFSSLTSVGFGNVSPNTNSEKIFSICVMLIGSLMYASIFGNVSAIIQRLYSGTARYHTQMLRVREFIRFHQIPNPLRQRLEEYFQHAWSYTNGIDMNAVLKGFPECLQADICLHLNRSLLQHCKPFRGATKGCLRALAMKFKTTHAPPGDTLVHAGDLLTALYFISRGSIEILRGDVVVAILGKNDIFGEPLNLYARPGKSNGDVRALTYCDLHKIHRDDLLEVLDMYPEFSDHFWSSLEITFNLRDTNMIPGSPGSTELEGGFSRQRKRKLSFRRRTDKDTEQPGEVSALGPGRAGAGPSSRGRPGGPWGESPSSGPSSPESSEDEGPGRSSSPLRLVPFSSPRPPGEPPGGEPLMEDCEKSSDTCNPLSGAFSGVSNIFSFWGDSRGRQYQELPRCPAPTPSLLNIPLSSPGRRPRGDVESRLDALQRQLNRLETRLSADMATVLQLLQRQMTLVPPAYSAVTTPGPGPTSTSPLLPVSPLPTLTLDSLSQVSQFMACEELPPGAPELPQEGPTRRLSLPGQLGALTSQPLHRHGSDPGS
row,Compound,"hERG current change (%, negative = inhibition) at 1uM [%]"
1,CCc1cc2c(SCC(=O)O)ncnc2s1,5.49
2,O=C(CSCc1nc2ccccc2[nH]1)Nc1ccccc1,-1.59
3,O=C(N1CCOCC1)C12CC3CC(C1)CC(C(=O)N1CCOCC1)(C3)C2,11.7
4,C=CCC(=O)NC1CC(C)(C)Cc2c1cnn2-c1ccc(C)cc1 (stereo not drawn),-20.8
5,CCCn1c(NC(=O)C2CCN(C(=O)c3ccccc3C)CC2)nc2ccccc21,8.78
6,OCCNc1c2c(nc3ccccc13)CCCC2,-15.9
7,O=C(Nc1cccc(NC(=O)c2ccc([N+](=O)[O-])o2)c1)c1ccco1,14.2
8,CCOC(=O)c1nn(-c2ccc(C)c(Cl)c2)c(=O)c(C#N)c1C,9.21
9,COc1ccccc1N1CCN(CCCCOc2ccc(F)cc2)CC1.Cl,-71.5
10,Cn1c(=O)oc2cc(C(=O)c3ccccc3)ccc21,0.415
11,Cc1ccc(S(=O)(=O)Nc2nc3ccccc3nc2NCC2CCCO2)c(C)c1 (stereo not drawn),13.3
12,COc1ccc(CN2CCNC(=O)C2CC(=O)NC2CCCCCCC2)cc1C (stereo not drawn),12.5
13,COc1ccc(N=C2SC(CC(=O)Nc3ccc(OC)cc3OC)C(=O)N2C)cc1 (stereo not drawn),1.39
14,COc1cccc(C(C#N)N2CCCCC2)c1O (stereo not drawn),-13.3
15,CCCCn1c(-c2ccncc2)nc2c1c(=O)[nH]c(=O)n2CC(C)C,6.11
16,CCOC(=O)C1CCCN(C(=S)NC(=O)/C=C/c2ccc(F)cc2)C1 (stereo not drawn),-5.75
17,O=S(=O)(Nc1cccc(-c2ccc(N3CCCCCC3)nn2)c1)c1ccc(F)cc1,14.4
18,Cl.O=C(NCCCN1CCOCC1)c1coc2ccccc2c1=O,7.61
19,COCCCNC(=O)CCc1nnc(Cc2ccc(-c3ccccc3)cc2)o1,6.2
20,O=C(NCC(c1ccco1)N1CCc2ccccc2C1)c1cccc(Br)c1 (stereo not drawn),4.25
21,COc1cccc(C(=O)NC2CCCc3ccccc32)c1 (stereo not drawn),13.6
22,CCCC(=O)N(C)C1=Nc2ccc(Cl)cc2C(c2ccccc2)=[N+]([O-])C1,9.19
23,CC(=O)Nc1nc(C)c(C(C)(C)C)s1,9.66

row,Compound,"hERG current change (%, negative = inhibition) at 1uM [%]"
1,CCOc1ccccc1NC(=O)NNC(=O)COc1cccc(C)c1C,2.31
2,Cc1nnc2ccc(N3CCN(c4ccccn4)CC3)nn12,-22.2
3,COc1ccc(C2N(C(=O)C(F)(F)F)C(C)CN2S(=O)(=O)c2ccc(C)cc2)cc1 (stereo not drawn),5.1
4,CC(=O)Nc1ccc(C(=O)OCC(=O)N(c2ccccc2)C2CCS(=O)(=O)C2)cc1 (stereo not drawn),12.3
5,COc1ccc2oc(C)c(C(=O)NN)c2c1,5.76
6,C/C(=N\NC(=O)Cc1c(Cl)cccc1Cl)c1cccnc1,12.8
7,CCC(C)[C@H](NC(=O)[C@@H]1Cc2ccccc2CN1)C(=O)NCc1ccc(OC)cc1 (stereo partly drawn),-2.07
8,Cc1ccc(-c2nn(-c3ccccc3)cc2C(=O)NCCCN2CCOCC2)cc1,3.91
9,O=C(c1ccc2c(=O)n3c(nc2c1)CCCCC3)N1CCN(c2ccccc2)CC1,13
10,CCOc1ccc(CCNC(=O)c2ccc(CS(=O)Cc3ccc(Cl)cc3)o2)cc1 (stereo not drawn),-3.91
11,O=C(CSc1nc2ccccc2c(=O)n1-c1ccccc1)N/N=C/C=C/c1ccccc1[N+](=O)[O-],8.2
12,COC(=O)c1ccc2c(=O)n(CC3CCCO3)c(=S)[nH]c2c1 (stereo not drawn),14.9
13,CC1(c2nnc(-c3cccc(Cl)c3)o2)CC(c2ccc(Br)cc2)=NO1 (stereo not drawn),11.3
14,Cc1cc(NC(=O)CSc2cn(CCNC(=O)c3ccc(Cl)cc3)c3ccccc23)no1,-4.13
15,CCN1CCN(CCCCOc2ccccc2F)CC1.O=C(O)C(=O)O,-4.42
16,CCOP(=O)(O)c1ccccc1OCCCCCOc1ccccc1P(=O)(O)OCC,16.4
17,Cc1cn(Cc2ccccc2Cn2cc(C)c(=O)[nH]c2=O)c(=O)[nH]c1=O,16.4
18,COc1ccc2c(c1OC)C(=O)OC2Nc1nc(-c2ccc(-c3ccccc3)cc2)cs1 (stereo not drawn),14.4
19,CNS(=O)(=O)c1cccc(C(=O)NCC2(N3CCOCC3)CCCCC2)c1,7.72
20,CC(NC(=O)c1ccc(Cl)c(Cl)c1)c1ccc(-c2ccccc2)cc1 (stereo not drawn),13
21,Cn1c2ccccc2c2cnn(CC(=O)O)c(=O)c21,11.8
22,Cc1ccc(NS(=O)(=O)c2ccc(CCC(=O)NCc3ccccn3)cc2)cc1,10.3
